Data published in the supplement of paper PMC8728848.
Some of the results follow.

Key:
Assay in all cases: glycan array binding signal (z-score within array); higher = stronger binding
Conditions in all cases: glycan notation: IUPAC condensed, linker removed
[1] = target: Gal(a1-3)Gal(b1-4)GlcNAc(b1-2)Man
How it was run: (§1)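 The binding signal is a Z-score computed within each array. Data were drawn from 3228 arrays in the Consortium for Functional Glycomics database, restricted to those with a known protein sequence. Scores were averaged over arrays of the same protein sequence at different concentrations or buffers, and over linkers, and negative values can be taken as non-binding.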

[2] = target: Gal(a1-3)Gal(b1-4)GlcNAc(b1-2)Man(a1-3)[Gal(a1-3)Gal(b1-4)GlcNAc(b1-2)Man(a1-6)]Man(b1-4)GlcNAc(b1-4)GlcNAc
How it was run: as §1

[3] = target: Gal(a1-3)Gal(b1-4)GlcNAc(b1-3)GalNAc
How it was run: as §1

[4] = target: Gal(a1-3)Gal(b1-4)GlcNAc(b1-6)GalNAc
How it was run: as §1

[5] = target: Gal(a1-3)Gal(b1-4)[Fuc(a1-3)]GlcNAc
How it was run: as §1

[6] = target: Gal(a1-3)Gal(b1-4)[Fuc(a1-3)]GlcNAc(b1-2)Man(a1-3)[Gal(a1-3)Gal(b1-4)[Fuc(a1-3)]GlcNAc(b1-2)Man(a1-6)]Man(b1-4)GlcNAc(b1-4)GlcNAc
How it was run: as §1

[7] = target: Gal(a1-3)GalNAc
How it was run: as §1

[8] = target: Gal(a1-3)[Gal(a1-4)]Gal(b1-4)GlcNAc
How it was run: as §1

[9] = target: Gal(a1-4)Gal(b1-3)GlcNAc(b1-2)Man(a1-3)[Gal(a1-4)Gal(b1-3)GlcNAc(b1-2)Man(a1-6)]Man(b1-4)GlcNAc(b1-4)GlcNAc
How it was run: as §1

[10] = target: Gal(a1-4)Gal(b1-4)Glc
How it was run: as §1

[11] = target: Gal(a1-4)Gal(b1-4)GlcNAc
How it was run: as §1

[12] = target: Gal(a1-4)Gal(b1-4)GlcNAc(b1-2)Man(a1-3)[Gal(a1-4)Gal(b1-4)GlcNAc(b1-2)Man(a1-6)]Man(b1-4)GlcNAc(b1-4)GlcNAc
How it was run: as §1

[13] = target: Gal(a1-4)Gal(b1-4)GlcNAc(b1-3)Gal(b1-4)Glc
How it was run: as §1

[14] = target: Gal(a1-4)GlcNAc
How it was run: as §1

[15] = target: Gal(a1-6)Glc
How it was run: as §1

[16] = target: Gal(b1-2)Gal
How it was run: as §1

[17] = target: Gal(b1-3)Gal
How it was run: as §1

[18] = target: Gal(b1-3)Gal(b1-4)GlcNAc
How it was run: as §1

[19] = target: Gal(b1-3)GalNAc
How it was run: as §1

[20] = target: Gal(b1-3)GalNAc(a1-3)[Fuc(a1-2)]Gal(b1-4)Glc
How it was run: as §1

[21] = target: Gal(b1-3)GalNAc(a1-3)[Fuc(a1-2)]Gal(b1-4)GlcNAc
How it was run: as §1

[22] = target: Gal(b1-3)GalNAc(b1-3)Gal
How it was run: as §1

[23] = target: Gal(b1-3)GalNAc(b1-3)Gal(a1-4)Gal(b1-4)Glc
How it was run: as §1

[24] = target: Gal(b1-3)GalNAc(b1-4)Gal(b1-4)Glc
How it was run: as §1

[25] = target: Gal(b1-3)GalNAc(b1-4)[Neu5Ac(a2-3)]Gal(b1-4)Glc
How it was run: as §1

[26] = target: Gal(b1-3)GlcNAc
How it was run: as §1

[27] = target: Gal(b1-3)GlcNAc(a1-3)Gal(b1-4)GlcNAc
How it was run: as §1

[28] = target: Gal(b1-3)GlcNAc(a1-6)Gal(b1-4)GlcNAc
How it was run: as §1

[29] = target: Gal(b1-3)GlcNAc(b1-2)Man
How it was run: as §1

[30] = target: Gal(b1-3)GlcNAc(b1-2)Man(a1-3)[Gal(b1-3)GlcNAc(b1-2)Man(a1-6)]Man(b1-4)GlcNAc(b1-4)GlcNAc
How it was run: as §1

[31] = target: Gal(b1-3)GlcNAc(b1-2)Man(a1-3)[Gal(b1-3)GlcNAc(b1-2)Man(a1-6)]Man(b1-4)GlcNAc(b1-4)[Fuc(a1-6)]GlcNAc
How it was run: as §1

[32] = target: Gal(b1-3)GlcNAc(b1-2)Man(a1-3)[GlcNAc(b1-4)][Gal(b1-3)GlcNAc(b1-2)Man(a1-6)]Man(b1-4)GlcNAc(b1-4)GlcNAc
How it was run: as §1

[33] = target: Gal(b1-3)GlcNAc(b1-2)[Gal(b1-3)GlcNAc(b1-6)]Man(a1-6)[Gal(b1-3)GlcNAc(b1-2)Man(a1-3)]Man(b1-4)GlcNAc(b1-4)GlcNAc
How it was run: as §1

[34] = target: Gal(b1-3)GlcNAc(b1-3)Gal(b1-3)GlcNAc
How it was run: as §1

[35] = target: Gal(b1-3)GlcNAc(b1-3)Gal(b1-4)Glc
How it was run: as §1

[36] = target: Gal(b1-3)GlcNAc(b1-3)Gal(b1-4)GlcNAc
How it was run: as §1

[37] = target: Gal(b1-3)GlcNAc(b1-3)Gal(b1-4)GlcNAc(b1-2)Man(a1-3)[Gal(b1-3)GlcNAc(b1-3)Gal(b1-4)GlcNAc(b1-2)Man(a1-6)]Man(b1-4)GlcNAc(b1-4)GlcNAc
How it was run: as §1

[38] = target: Gal(b1-3)GlcNAc(b1-3)Gal(b1-4)GlcNAc(b1-2)[Gal(b1-3)GlcNAc(b1-3)Gal(b1-4)GlcNAc(b1-6)]Man(a1-6)[Gal(b1-3)GlcNAc(b1-3)Gal(b1-4)GlcNAc(b1-2)Man(a1-3)]Man(b1-4)GlcNAc(b1-4)[Fuc(a1-6)]GlcNAc
How it was run: as §1

[39] = target: Gal(b1-3)GlcNAc(b1-3)Gal(b1-4)GlcNAc(b1-3)Gal(b1-4)GlcNAc(b1-2)[Gal(b1-3)GlcNAc(b1-3)Gal(b1-4)GlcNAc(b1-3)Gal(b1-4)GlcNAc(b1-6)]Man(a1-6)[Gal(b1-3)GlcNAc(b1-3)Gal(b1-4)GlcNAc(b1-3)Gal(b1-4)GlcNAc(b1-2)Man(a1-3)]Man(b1-4)GlcNAc(b1-4)[Fuc(a1-6)]GlcNAc
How it was run: as §1

[40] = target: Gal(b1-3)GlcNAc(b1-3)Gal(b1-4)GlcNAc(b1-6)[Gal(b1-3)GlcNAc(b1-3)]Gal(b1-4)Glc
How it was run: as §1

[41] = target: Gal(b1-3)GlcNAc(b1-3)Gal(b1-4)[Fuc(a1-3)]GlcNAc
How it was run: as §1

[42] = target: Gal(b1-3)GlcNAc(b1-3)Gal(b1-4)[Fuc(a1-3)]GlcNAc(b1-6)[Gal(b1-3)GlcNAc(b1-3)]Gal(b1-4)Glc
How it was run: as §1

[43] = target: Gal(b1-3)GlcNAc(b1-3)GalNAc
How it was run: as §1

[44] = target: Gal(b1-3)GlcNAc(b1-6)Gal(b1-4)GlcNAc
How it was run: as §1

[45] = target: Gal(b1-3)GlcNAc(b1-6)GalNAc
How it was run: as §1

B1: Cohesin-hLangerin (Homo sapiens) (protein)
chain: LDDLDAVRIKVDTVNAKPGDTVRIPVRFSGIPSKGIANCDFVYSYDPNVLEIIEIEPGDIIVDPNPDKSFDTAVYPDRKIIVFLFAEDSGTGAYAITKDGVFATIVAKVKEGAPNGLSVIKFVEVGGFANNDLVEQKTQFFDGGANVGDTTEPATPTTPVTTPTTTDDLDAASYPRFMGTISDVKTNVQLLKGRVDNISTLDSEIKKNSDGMEAAGVQIQMVNESLGYVRSQFLKLKTSVEKANAQIQILTRSWEEVSTLNAQIPELKSDLEKASALNTKIRALQGSLENMSKLLKRQNDILQVVSQGWKYFKGNFYYFSLIPKTWYSAEQFCVSRNSHLTSVTSESEQEFLYKTAGGLIYWIGLTKAGMEGDWSWVDDTPFNKVQSARFWIPGEPNNAGNNEHCGNIKAPSLQAWNDAPCDKTFLFICKRPYVPSEPHHHHHH
glycan array binding signal (z-score) [1]: -0.36 | glycan array binding signal (z-score) [2]: -0.389 | glycan array binding signal (z-score) [3]: -0.348 | glycan array binding signal (z-score) [4]: -0.136 | glycan array binding signal (z-score) [5]: -0.372 | glycan array binding signal (z-score) [6]: 0.41 | glycan array binding signal (z-score) [7]: -0.412 | glycan array binding signal (z-score) [8]: -0.426 | glycan array binding signal (z-score) [9]: 0.877 | glycan array binding signal (z-score) [10]: -0.278 | glycan array binding signal (z-score) [11]: -0.301 | glycan array binding signal (z-score) [12]: -0.368 | glycan array binding signal (z-score) [13]: -0.399 | glycan array binding signal (z-score) [14]: -0.3 | glycan array binding signal (z-score) [15]: -0.349 | glycan array binding signal (z-score) [16]: 0.175 | glycan array binding signal (z-score) [17]: -0.229 | glycan array binding signal (z-score) [18]: -0.346 | glycan array binding signal (z-score) [19]: -0.328 | glycan array binding signal (z-score) [20]: -0.311 | glycan array binding signal (z-score) [21]: -0.363 | glycan array binding signal (z-score) [22]: -0.24 | glycan array binding signal (z-score) [23]: -0.332 | glycan array binding signal (z-score) [24]: -0.402 | glycan array binding signal (z-score) [25]: -0.292 | glycan array binding signal (z-score) [26]: -0.322 | glycan array binding signal (z-score) [27]: -0.425 | glycan array binding signal (z-score) [28]: -0.39 | glycan array binding signal (z-score) [29]: -0.114 | glycan array binding signal (z-score) [30]: 0.179 | glycan array binding signal (z-score) [31]: 0.003 | glycan array binding signal (z-score) [32]: 4.37 | glycan array binding signal (z-score) [33]: 4.81 | glycan array binding signal (z-score) [34]: -0.372 | glycan array binding signal (z-score) [35]: -0.373 | glycan array binding signal (z-score) [36]: -0.406 | glycan array binding signal (z-score) [37]: 1.62 | glycan array binding signal (z-score) [38]: 3.71 | glycan array binding signal (z-score) [39]: 5.37 | glycan array binding signal (z-score) [40]: -0.418 | glycan array binding signal (z-score) [41]: -0.366 | glycan array binding signal (z-score) [42]: -0.447 | glycan array binding signal (z-score) [43]: -0.379 | glycan array binding signal (z-score) [44]: -0.363 | glycan array binding signal (z-score) [45]: -0.23
